# Reference: the supplement of paper PMC3724861
# Some of the results follow.
# Tested on: T1, Caupolican (Caup) homeodomain DNA-binding domain
# T1 sequence: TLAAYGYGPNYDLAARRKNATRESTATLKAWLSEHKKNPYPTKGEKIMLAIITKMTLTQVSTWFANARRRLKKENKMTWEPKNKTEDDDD
# Test: PBM E-score (8-mer, recovered from the published 9-mer minima) (E-score (dimensionless, -0.5 to 0.5)); Drosophila protein; higher = stronger relative binding preference, active = 0.31 or more
# Method: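 Protein binding microarray (PBM): in vitro transcribed/translated Caupolican (Caup) homeodomain DNA-binding domain (residues 214-303) applied at 100 nM to a universal 8-mer PBM array (Agilent AMADID 015681). The 8-mer enrichment score (E-score, range -0.5 to 0.5) was computed, and each 9-mer score is the minimum E-score of its two constituent 8-mers. The E-score is the same for a 9-mer and its reverse complement; 0.31 is the stated binding threshold.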
row,Sequence,PBM E-score
1,AACGTTTG,inactive: -0.00758
2,CAGCTAGA,inactive: -0.0247
3,GAAGATCC,inactive: -0.11
4,AGTAAAAC,inactive: 0.108
5,ACTGCCGC,inactive: -0.193
6,CGTGCATC,inactive: -0.0481
7,ATCGTAAG,inactive: 0.03
8,CCCGCGAA,inactive: -0.153
9,GGACATAC,inactive: 0.179
10,CCTTTTAC,inactive: -0.00807
11,AACAAATG,inactive: 0.174
12,CGGAGCTC,inactive: -0.261
13,CTTCCAAA,inactive: -0.00092
14,CCCATGAA,inactive: -0.0586
15,TCAGGCAA,inactive: -0.0598
16,ATGCAGAC,inactive: 0.0848
17,AGCTAACG,inactive: 0.014
18,GCTTAAGA,inactive: -0.116
19,AAGATTCG,inactive: -0.0224
20,AAAGCAAG,inactive: -0.00791
21,AGTGATAA,inactive: 0.126
22,CTGTCGAA,inactive: 0.125
23,CAAGGAAC,inactive: 0.117
24,AGGCCAAA,inactive: -0.112
25,CCGCTCGC,inactive: -0.2

row,Sequence,PBM E-score
1,CAATGCTA,inactive: 0.0965
2,CGTTTGCA,inactive: 0.048
3,ACCCGTTA,inactive: -0.00165
4,AAATAAGA,inactive: 0.0738
5,ATATAAGA,≥ 0.164
6,CTGTTACA,active: 0.33
7,CCTCGCTA,inactive: -0.113
8,GCAGGACA,inactive: 0.111
9,AAGACCTC,inactive: -0.115
10,TCAGCCGA,≥ -0.0396
11,ACCCATAG,inactive: -0.13
12,AAGCGCTG,inactive: -0.0856
13,CTCAAGGA,inactive: -0.14
14,CCATAGCA,inactive: 0.0725
15,ATAAAACA,inactive: 0.257
16,CGCCACAC,inactive: -0.0919
17,GCTCTTCA,inactive: -0.15
18,CTTTAAAC,inactive: 0.0573
19,CGGATGAA,inactive: 0.0486
20,CATACTCA,inactive: 0.175
21,GACTGCGC,inactive: -0.165
22,AGTCGGGA,inactive: -0.162
23,AACCCGGC,inactive: -0.182
24,CACAATGA,inactive: 0.116
25,CAAAATTG,inactive: 0.122

row,Sequence,PBM E-score
1,CCCTCTAG,inactive: -0.126
2,ATGTAGAG,inactive: 0.128
3,ATCCATCG,inactive: 0.0217
4,GATAACGA,≥ 0.175
5,GACTCGCA,inactive: -0.115
6,AGTCTGCA,inactive: -0.0743
7,ATCATATG,inactive: 0.233
8,AAGTCTGG,inactive: -0.0338
9,CAGCAGCA,inactive: 0.00905
10,AATCGGTC,inactive: -0.0649
11,CGAGGGAG,inactive: -0.158
12,CACAGTAG,inactive: 0.0522
13,CCATCTTA,inactive: -0.0877
14,GTACAGAC,inactive: 0.241
15,ACTAGTTG,inactive: 0.203
16,ATGCTGCG,inactive: -0.0674
17,AATGGCGG,inactive: -0.225
18,CTCAAACC,inactive: -0.0882
19,CCGATACA,inactive: 0.118
20,CCCTCTGC,inactive: -0.317
21,ATAGTGCG,inactive: -0.048
22,AACACGGA,inactive: 0.31
23,CATCTACC,inactive: 0.00101
24,AGGTATGC,inactive: 0.108
25,AAGGGCGC,inactive: -0.172

row,Sequence,PBM E-score
1,CCGGCCAC,inactive: -0.244
2,ACTAAGTA,inactive: 0.14
3,CAGCGTTA,inactive: -0.0155
4,GACAGGTC,inactive: 0.098
5,CGGACTTA,inactive: -0.075
6,AGGACATG,active: 0.38
7,TCGAGCAA,≥ 0.0393
8,TCGGAGAA,inactive: -0.155
9,ACTGGGGC,inactive: -0.173
10,CGACGAGC,inactive: -0.0955
11,CCTTAAGC,inactive: -0.204
12,CGTTAGTA,inactive: 0.101
13,GATAACCA,inactive: 0.122
14,CGGTCTAC,inactive: -0.0498
15,AACAATCG,inactive: 0.191
16,GGCTGACC,inactive: -0.0683
17,ATAGGCGA,inactive: -0.0622
18,AGACCTAG,inactive: -0.177
19,AGTCGGGG,inactive: -0.204
20,CAATCCTA,inactive: -0.065
21,CGTCCGAG,inactive: -0.108
22,AACTAGTG,inactive: 0.084
23,CACTGCTA,inactive: 0.075
24,ACGCGGGG,inactive: -0.14
25,ACAGTAAC,inactive: 0.157

row,Sequence,PBM E-score
1,GGCACGCA,inactive: -0.188
2,CCCCTAGC,inactive: -0.264
3,CTTCTTGA,inactive: -0.0627
4,CTTTACAA,inactive: 0.137
5,AGATCCCA,inactive: -0.0747
6,AGACGCTC,inactive: -0.135
7,CTATCACC,inactive: -0.0824
8,CTTGTCTA,inactive: 0.281
9,AACGAACG,inactive: -0.0492
10,AAGGCTCC,inactive: -0.229
11,CCGACCCC,inactive: -0.288
12,TATGTCGA,active: 0.323
13,CTCGTTAC,inactive: 0.147
14,CTCTGCGA,inactive: -0.00912
15,AAATACGT,inactive: 0.0315
16,GGAGTCAA,inactive: -0.113
17,AGATTGTC,inactive: 0.112
18,GTTAACGA,inactive: 0.142
19,CAGCTGGA,inactive: -0.0345
20,ACTGGACG,inactive: -0.091
21,GCACTAAA,inactive: -0.0651
22,GGCGAATA,inactive: -0.0493
23,ACCAGAGA,inactive: 0.0483
24,AGAACTTC,inactive: -0.0946
25,AGTATTAT,inactive: 0.209

row,Sequence,PBM E-score
1,AACTATGG,inactive: 0.052
2,GCTAGGCC,inactive: -0.238
3,AACTAGGA,≥ 0.133
4,CCCACCCA,inactive: -0.0835
5,GAAGATAC,inactive: -0.0179
6,TAATGTCA,inactive: 0.258
7,CTATTTGA,inactive: 0.0537
8,AGGACAGG,inactive: -0.0166
9,CCTGACGC,inactive: -0.219
10,AAAGGTTG,inactive: -0.00255
11,CAAAAATG,inactive: 0.126
12,CAGGCCAA,inactive: -0.133
13,ATCTCAAC,inactive: 0.133
14,ACAGGGTG,inactive: 0.0134
15,CCCTATTA,inactive: 0.029
16,AGAGCGCG,inactive: -0.221
17,AATGACCC,inactive: 0.00407
18,GAATCAGC,inactive: -0.05
19,ATATTGGG,inactive: 0.0383
20,CCAAAGCG,inactive: -0.188
21,CATGTCAA,active: 0.422
22,AGTTAACT,inactive: 0.102
23,TATCATCA,inactive: 0.14
24,CCCCTATA,inactive: -0.168
25,AATACGCG,inactive: 0.0251

row,Sequence,PBM E-score
1,AATGTCGG,inactive: 0.119
2,CATCGAAA,inactive: -0.047
3,ACTCGATA,inactive: 0.124
4,ACAGAGCC,inactive: -0.0639
5,CCGTGTCG,inactive: 0.233
6,ATCACGGA,inactive: 0.0485
7,GGCGTTAA,inactive: -0.0388
8,ACAGCGGT,inactive: 0.0217
9,GTCAACTA,inactive: 0.107
10,CACGTTAG,inactive: 0.0188
11,CTACGTCA,inactive: -0.0249
12,ACGAGTCT,inactive: 0.0486
13,CTGGCAGA,inactive: -0.105
14,CACCAATC,inactive: -0.0309
15,CGGGATAG,inactive: -0.065
16,AGGGCTTG,inactive: -0.0579
17,CAAGCTAC,inactive: 0.0871
18,CTACGGAG,inactive: -0.111
19,GCCAGACC,inactive: -0.268
20,ATGAAGGG,inactive: -0.101
21,TGAATAAA,inactive: 0.122
22,GACAGTAA,inactive: 0.0594
23,CGTTGGGA,inactive: -0.0582
24,ATCGTTTA,inactive: 0.13
25,AGCTGGAG,inactive: -0.161

row,Sequence,PBM E-score
1,ATGCGCCC,inactive: -0.113
2,ACAACGAA,inactive: 0.187
3,ACAATTCC,inactive: 0.106
4,CGACCACA,inactive: 0.0304
5,AGCAGCAG,inactive: -0.0168
6,GACGCGCC,inactive: -0.192
7,ACTCGCGA,≥ -0.00136
8,GCCCAGGC,inactive: -0.306
9,ACTGCAAT,inactive: 0.0371
10,ACCACTGG,inactive: 0.0546
11,CGCCGAAG,inactive: -0.188
12,CCCCCTGA,inactive: -0.229
13,ACGAGCAA,inactive: 0.112
14,CCTTATCC,inactive: -0.195
15,AACATAAT,active: ≥ 0.327
16,ATTATGGC,inactive: 0.00576
17,GTGGTATA,≥ 0.178
18,CAAAATGA,inactive: 0.0481
19,ATCTGTTA,inactive: 0.179
20,CGATCCCA,inactive: -0.12
21,AAGAAACT,inactive: 0.0222
22,AGGGGGCA,≥ -0.238
23,ACCATGAG,inactive: -0.118
24,CTATCGTA,inactive: 0.187
25,AGATCCTC,inactive: -0.0474

row,Sequence,PBM E-score
1,CAATTTTC,inactive: 0.0183
2,ACACCACG,inactive: 0.085
3,CAATGAAC,inactive: 0.0723
4,AGAGAGCC,inactive: -0.211
5,TAACCTGA,inactive: 0.065
6,AGCATCTG,inactive: 0.00631
7,ATGTTTTA,active: 0.369
8,GTTGCGGA,inactive: -0.0563
9,CAGTAACA,inactive: 0.23
10,CCAAGCCC,inactive: -0.123
11,ACGGACGA,≥ 0.0284
12,TTGATCAA,inactive: 0.115
13,CCTTACAG,inactive: -0.0132
14,CCGCAGTC,inactive: -0.104
15,AGCTCTCC,inactive: -0.149
16,CTTTTATA,inactive: -0.0123
17,TACAACCA,inactive: 0.308
18,ACGAATCC,inactive: 0.0795
19,CTAACGCC,inactive: -0.118
20,ACCAGGCA,inactive: -0.002
21,AAATTGGG,inactive: -0.0398
22,AGAGGGCC,inactive: -0.297
23,ATTCTACA,≥ 0.298
24,TACTTAGA,inactive: 0.0139
25,ACATTGGG,inactive: 0.0631
